{
  "source": "PubChem BioAssay AID624417",
  "about": "(National Center for Advancing Translational Sciences (NCATS), 2012)",
  "note": "The whole screen tested about 410,000 compounds, of which about 6,400 (1.6%) were called active. The shares of active, inactive and inconclusive entries below differ from those in the screen. Calls follow the shape of the dose curve; as a rule, active = well fitted inhibition curve with a large enough effect; inconclusive = small, poorly fitted or top-dose-only effect; inactive = no such curve, though single readings can be large or run the other way. No potency is given beside an inconclusive call; the fits are too rough. % is scaled to controls: 0 for no effect and ±100 for the full control effect; potency is read from the fitted curve at half-maximal effect; tags tell the direction and shape of the fitted curve.",
  "data": [
    {"molecular_target": "Glucagon-like peptide 1 receptor (Homo sapiens) (UniProt P43220)", "sequence (P43220 whole entry, looked up)": "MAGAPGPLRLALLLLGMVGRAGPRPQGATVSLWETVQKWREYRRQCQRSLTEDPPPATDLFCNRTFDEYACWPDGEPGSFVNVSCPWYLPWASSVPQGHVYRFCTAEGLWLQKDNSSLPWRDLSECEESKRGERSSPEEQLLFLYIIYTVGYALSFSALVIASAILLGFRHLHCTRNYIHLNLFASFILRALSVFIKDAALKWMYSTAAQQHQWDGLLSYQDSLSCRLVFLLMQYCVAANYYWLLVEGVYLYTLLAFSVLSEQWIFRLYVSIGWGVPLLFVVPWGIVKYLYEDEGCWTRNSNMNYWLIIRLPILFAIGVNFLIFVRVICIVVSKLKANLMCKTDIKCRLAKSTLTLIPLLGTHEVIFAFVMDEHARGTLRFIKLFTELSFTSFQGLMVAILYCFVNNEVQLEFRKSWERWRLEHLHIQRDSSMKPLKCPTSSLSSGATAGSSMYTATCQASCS", "assay": "qHTS of GLP-1 Receptor Inverse Agonists (Inhibition Mode); also: nearly all actives have a fitted effect of over 55% in size", "settings": "HEK293 GLP-1R CRE-luciferase, luminescence, 24 h, GLP-1R form is constitutively active; activity change, negative = inhibition: at 38.3 µM (top of the series) unless noted", "method_in_brief": "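Cells are plated, allowed 12 hours at 37 deg C, then treated with compounds for 24 hr before luciferase detection reagent is added and luminescence is read after 12 min at room temperature. The HEK293 line carries constitutively active GLP-1R with a cAMP-responsive reporter.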", "values": [
      {"smiles": "O=C(Nc1sc2c(c1C(=O)NCC1CCCO1)CCCC2)c1cccs1", "note": "(stereo unspecified)", "Potency": "inconclusive [inhibitor, single point]"},
      {"smiles": "O=[N+]([O-])c1ccc(-c2csc(NN=C3CCCC3)n2)cc1", "Potency": "inconclusive [inhibitor, partial curve, poor fit]"},
      {"smiles": "Cc1ccc(C(=O)N2CCN(c3ccc4c(c3)C3CC4CCN3C(=O)OCc3ccccc3)CC2)cc1", "note": "(stereo unspecified)", "Potency": "inconclusive [inhibitor, single point]"},
      {"smiles": "Cc1cc(C)cc(NC(=O)Nc2ccc(N3CCCCC3)cc2)c1", "Potency": "inconclusive [inhibitor, partial curve, poor fit]"},
      {"smiles": "CCCCCCCCOC1OC(CO)C(O)C(O)C1NC(C)=O", "note": "(stereo unspecified)", "Potency": "inconclusive [inhibitor, partial curve, poor fit]"},
      {"smiles": "COc1ccc(OCCn2c(NC(=O)c3ccc(OC)cc3)nc3ccccc32)cc1", "activity change, negative = inhibition": "inactive: 8.79%"},
      {"smiles": "c1ccc(CN2CCC(N=C3NN=C(c4ccc5c(c4)OCCO5)CS3)CC2)cc1", "Potency": "inconclusive [inhibitor, partial curve, poor fit]"},
      {"smiles": "Brc1ccc(CSc2nccn2-c2ccccc2)cc1", "Potency": "inconclusive [inhibitor, partial curve, poor fit]"},
      {"smiles": "CCN(CC)S(=O)(=O)c1ccc(NC(=O)Cn2c(=O)sc3ccccc32)cc1", "Potency": "inconclusive [inhibitor, partial curve, poor fit]"},
      {"smiles": "COc1ccccc1CNC(=O)CSc1ncc(S(=O)(=O)c2ccc(C)c(Cl)c2)c(=O)[nH]1", "activity change, negative = inhibition": "inactive: 15.6%"},
      {"smiles": "CN(CC(=O)Nc1ccc(Cl)cc1)S(=O)(=O)c1cccc2cccnc12", "Potency": "inconclusive [inhibitor, single point]"},
      {"smiles": "CC(=O)c1ccc(OC2(C)CCN(Cc3cc4ccccc4[nH]3)C2)cc1", "note": "(stereo unspecified)", "Potency": "inconclusive [inhibitor, single point]"},
      {"smiles": "COc1ccccc1CC(=O)N1CCCc2cc(C)ccc21", "Potency": "inconclusive [inhibitor, partial curve, poor fit]"},
      {"smiles": "COc1cccc(C(=O)Nc2ccc(N3CCN(C(=O)c4cccs4)CC3)cc2)c1", "Potency": "inconclusive [inhibitor, partial curve]"},
      {"smiles": "COc1cc(-c2nc(SCC(=O)Nc3ccc4c(c3)OCO4)c(-c3ccccc3)[nH]2)cc(OC)c1OC", "Potency": "inconclusive [inhibitor, partial curve, poor fit]"},
      {"smiles": "Cc1cccc(-c2noc(CSc3ccccc3)n2)c1", "Potency": "inconclusive [inhibitor, single point]"},
      {"smiles": "COc1ccc(-c2nnc(C3CCN(S(=O)(=O)c4cccc(Cl)c4)CC3)o2)cc1", "Potency": "inconclusive [inhibitor, single point]"},
      {"smiles": "Nc1cc2c(cc1Br)-c1ccc(F)cc1C2O", "note": "(stereo unspecified)", "Potency": "inconclusive [inhibitor, single point]"},
      {"smiles": "Cc1ccccc1Cn1c(-c2cncs2)nc2ccccc21", "Potency": "inconclusive [inhibitor, single point]"},
      {"smiles": "CC(C)CC(=O)/C(=C/c1ccc(N(C)C)cc1)n1cncn1", "Potency": "inconclusive [inhibitor, full curve]"},
      {"smiles": "Cc1ccc(C)c(NC(c2ccccc2)c2nnc(-c3ccccc3F)o2)c1", "note": "(stereo unspecified)", "Potency": "inconclusive [inhibitor, single point]"},
      {"smiles": "Cc1cccc2sc(N(CCCN(C)C)C(=O)CCc3ccccc3)nc12", "Potency": "active: 2.82 µM"},
      {"smiles": "CCOC(=O)CC(NC(=O)Cn1nnc(-c2ccccc2Cl)n1)c1ccc(OC)cc1", "note": "(stereo unspecified)", "Potency": "inconclusive [inhibitor, partial curve, poor fit]"},
      {"smiles": "COc1ccc(CCN2C(=O)N(c3cccc(C)c3)C(=O)C2CC(=O)Nc2ccccc2)cc1OC", "note": "(stereo unspecified)", "activity change, negative = inhibition": "inactive: -5.33%"},
      {"smiles": "CC1CC(C)CN(CCCNC(=O)c2cc3c(=O)[nH]c4ccccc4c3n2C)C1", "note": "(stereo unspecified)", "Potency": "inconclusive [inhibitor, single point]"},
      {"smiles": "O=C1CC(=C(c2ccccc2)c2ccccc2)C(=O)N1CCN1CCN(c2cccc(Cl)c2)CC1", "Potency": "inconclusive [inhibitor, single point]"},
      {"smiles": "C=C1CCN([C@@H](CC(C)C)C(=O)NCCCc2ccccc2)S(=O)(=O)c2ccccc21", "Potency": "inconclusive [inhibitor, partial curve, poor fit]"},
      {"smiles": "Cc1cccc(CCNC(=O)c2cc(S(=O)(=O)N3CCCCC3)c[nH]2)c1", "Potency": "inconclusive [inhibitor, single point]"},
      {"smiles": "O=C(COc1ccc2ccccc2c1CN1CCOCC1)N1CCc2ccccc21", "Potency": "inconclusive [inhibitor, single point]"},
      {"smiles": "Oc1ccc(/C=N/Nc2nc(-c3ccc(Cl)cc3)cc(C(F)(F)F)n2)cc1", "Potency": "inconclusive [inhibitor, partial curve, poor fit]"},
      {"smiles": "Cc1cccc(N2CCN(C(=O)c3ccc4c(c3)N(Cc3ccccc3)C(=O)c3ccccc3S4(=O)=O)CC2C)c1", "note": "(stereo unspecified)", "activity change, negative = inhibition": "inactive: 9.49%"},
      {"smiles": "N#Cc1ccc(C(S(=O)(=O)Cc2ccccc2)S(=O)(=O)Cc2ccccc2)cc1", "Potency": "inconclusive [inhibitor, single point]"},
      {"smiles": "O=C(COC(=O)C1CCC1)NCc1ccccc1Cl", "activity change, negative = inhibition": "inactive: -18.6%"},
      {"smiles": "COc1cccc(CN(C)Cc2cc(=O)oc3c(C)c(C)ccc23)c1", "Potency": "inconclusive [inhibitor, partial curve, poor fit]"},
      {"smiles": "CC(=O)N1N=C(c2ccc(C)cc2)OC1c1ccc(Br)cc1", "note": "(stereo unspecified)", "Potency": "inconclusive [inhibitor, partial curve, poor fit]"},
      {"smiles": "C=CCOc1ccc(CNc2nccs2)cc1", "Potency": "inconclusive [inhibitor, full curve, poor fit]"},
      {"smiles": "Cc1csc(C(C)NC(=O)c2ccc(OC3CCN(CCc4ccccc4)CC3)cc2)n1", "note": "(stereo unspecified)", "Potency": "inconclusive [inhibitor, partial curve, poor fit]"},
      {"smiles": "CCOc1cc(NC(=O)CCl)c(OCC)cc1NC(=O)CCl", "Potency": "inconclusive [inhibitor, single point]"},
      {"smiles": "O=C(CCCc1ccccc1)NC12CC3CC(CC(C3)C1)C2", "Potency": "inconclusive [inhibitor, single point]"},
      {"smiles": "O=S(=O)(c1ccc(F)cc1)N1CCC(Oc2cccc(C(F)(F)F)c2)CC1", "Potency": "inconclusive [inhibitor, single point]"},
      {"smiles": "O=C(CNc1cc(S(=O)(=O)N2CCCC2)ccc1OCC(F)(F)F)Nc1cccc(C(F)(F)F)c1", "Potency": "inconclusive [inhibitor, partial curve, poor fit]"},
      {"smiles": "COc1ccccc1S(=O)(=O)Nc1ccc(-c2nnc3n2CCCCC3)cc1", "activity change, negative = inhibition": "inactive: 11.6%"},
      {"smiles": "O=C(CN1CCNCC1)NCCSc1ccc(Cl)cc1", "Potency": "inconclusive [inhibitor, single point]"},
      {"smiles": "CCOCCCNC(=O)c1cc(=O)n(Cc2cccc(C)c2)c2ccccc12", "Potency": "inconclusive [inhibitor, single point]"},
      {"smiles": "Cc1ccc(NC(=O)C2CCN(S(=O)(=O)c3ccc4c(c3)NC(=O)C(C)S4)CC2)cc1C", "note": "(stereo unspecified)", "Potency": "inconclusive [inhibitor, partial curve, poor fit]"},
      {"smiles": "COc1ccccc1CN1CCC(CNC(=O)c2cnn(-c3ccccc3Cl)c2C2CCN(C(=O)OC(C)(C)C)CC2)CC1", "Potency": "inconclusive [inhibitor, single point]"},
      {"smiles": "N#Cc1nc(COc2ccc(Cl)cc2)oc1N1CCCC1", "Potency": "inconclusive [inhibitor, single point]"},
      {"smiles": "O=C(Nc1cccc(-c2csc(Nc3cccc(C(F)(F)F)c3)n2)c1)c1cc([N+](=O)[O-])cc(C(F)(F)F)c1", "Potency": "inconclusive [inhibitor, partial curve, poor fit]"},
      {"smiles": "Cc1cccc(-n2c(SCc3ccc(C#N)cc3)nnc2-c2c[nH]c3ccccc23)c1", "Potency": "inconclusive [inhibitor, partial curve]"},
      {"smiles": "Cc1ccc(-n2ncc3c(N4CCCCCC4)ncnc32)cc1Cl", "Potency": "inconclusive [inhibitor, full curve, poor fit]"},
      {"smiles": "Cc1cccc(NC(=O)c2ccc(-n3c(C)nnc3C)cc2)c1", "activity change, negative = inhibition": "inactive: 11.1%"},
      {"smiles": "Cc1cccc(N(Cc2ccccc2)C(=O)c2ccc(F)c(S(=O)(=O)N3CCOCC3)c2)c1", "Potency": "inconclusive [inhibitor, partial curve, poor fit]"},
      {"smiles": "Cc1ccc(-n2c(-c3ccc(Br)cc3)c[n+]3c2CCc2ccc4cccnc4c2-3)cc1", "Potency": "inconclusive [inhibitor, partial curve, poor fit]"},
      {"smiles": "Cc1cc(NCCCn2ccnc2)n2ncc(-c3ccccc3)c2n1", "Potency": "inconclusive [inhibitor, partial curve, poor fit]"},
      {"smiles": "CCOC(=O)c1oc2ccccc2c1NC(=O)c1ccccc1OC", "activity change, negative = inhibition": "inactive: 0%"},
      {"smiles": "CN1CCN(CC(=O)Nc2c(C(=O)c3ccccc3)oc3ccccc23)CC1", "Potency": "inconclusive [inhibitor, partial curve, poor fit]"},
      {"smiles": "O=C(CN1CCCN(Cc2cccc(Cl)c2)S1(=O)=O)Nc1ccc2c(c1)OCCO2", "activity change, negative = inhibition": "inactive: -25.5%"},
      {"smiles": "CCC1(c2ccccc2)SC(N)=NC1=O", "note": "(stereo unspecified)", "activity change, negative = inhibition": "inactive: -0.247%"},
      {"smiles": "CCCCOc1ccc(C(C)NC(=O)CN2C(=O)CSc3ccc(S(=O)(=O)N4CCOCC4)cc32)cc1", "note": "(stereo unspecified)", "Potency": "inconclusive [inhibitor, partial curve, poor fit]"},
      {"smiles": "Cc1c(C2(O)CCCCC2)[nH]c2cc(C(F)(F)F)ccc12", "Potency": "inconclusive [inhibitor, partial curve, poor fit]"},
      {"smiles": "Cc1ccc(S(=O)(=O)N2[C@@H](c3ccc(F)cc3)C(C(=O)O)=CC[C@H]2c2ccc3c(c2)OCO3)cc1", "Potency": "inconclusive [inhibitor, single point]"}
    ]}
  ]
}
